Test results taken from the supplement of paper PMC6206098.
± gives the uncertainty stated by the source. The sequences are guide strands of siRNAs; only the seed at positions 2 to 7 varies.

What was measured:
3LL = test: cell viability relative to siNT1 control; higher = less toxic; conditions: concentration: 10 nM; 96 h; Mus musculus;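 further: Luminescence-based viability of cells reverse transfected in 384-well plates with lipid-complexed siRNAs built on a non-toxic 19mer backbone whose passenger strand carries 2′-O-methyl groups at positions 1 and 2, triplicates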
HeyA8 = test: cell viability relative to lipid-only control; HeyA8 human ovarian and H460 human lung cancer; M565 mouse liver and 3LL mouse lung cancer; siNT1 is a non-toxic control siRNA; higher = less toxic; conditions: concentration: 10 nM; 96 h; Homo sapiens
Protocol: (§1)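 Arrayed screen of 4096 siRNA duplexes, each carrying one of all possible 6mer seeds at guide-strand positions 2-7 in a fixed neutral 19mer scaffold (constant flanks: U at position 1, then ACAUGUAAACCA, plus a 3' AA overhang). The passenger strand is 2'-O-methylated at positions 1-2 so only the guide strand loads into RISC. Duplexes were reverse-transfected at 10 nM with RNAiMAX in triplicate in 384-well plates; viability was read by CellTiter-Glo ATP content 96 h after transfection. Values are % viability normalised to lipid-only wells (HeyA8, H460, M565) or to siNT1 (3LL).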

H460 = test: as above; conditions: concentration: 10 nM; 96 h; Homo sapiens
Protocol: as §1

M565 = test: as above; conditions: concentration: 10 nM; 96 h; Mus musculus
Protocol: as §1
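Wherever cell viability relative to lipid-only control is given: reverse lipid transfection in 384-well plates, in triplicate, of duplexes on a non-toxic 19mer backbone with passenger strand 2′-O-methylated at positions 1 and 2, luminescence viability read-out.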

Sequence	cell viability (3LL) [%]	cell viability (HeyA8) [%]	cell viability (H460) [%]	cell viability (M565) [%]
UUCGUUAACAUGUAAACCAAA	100 ± 22	93.7 ± 12	69.7 ± 11	91.3 ± 3.5
UAGGAACACAUGUAAACCAAA	40.4 ± 6.4	57.3 ± 8.7	80.1 ± 6.3	30.6 ± 1.2
UAUCCAUACAUGUAAACCAAA	105 ± 6.4	83.2 ± 9.5	82.9 ± 8.3	72.6 ± 4.2
UGUCACUACAUGUAAACCAAA	46.6 ± 4.4	54.3 ± 6.7	28.7 ± 8.8	18.5 ± 4
UCAUAGUACAUGUAAACCAAA	84.7 ± 17	43.7 ± 4.5	32.5 ± 4.8	16.4 ± 6.3
UUGAAAUACAUGUAAACCAAA	26.9 ± 4.1	81 ± 6.6	56.3 ± 3.4	92.6 ± 8.9
UGUGCCAACAUGUAAACCAAA	22.9 ± 12	19.7 ± 3.3	66.4 ± 5.9	41 ± 8.7
UAUAUUCACAUGUAAACCAAA	71.6 ± 17	89.8 ± 18	82.7 ± 22	54.8 ± 1.6
UGCACGAACAUGUAAACCAAA	83.3 ± 15	64.2 ± 5.7	62.8 ± 5.8	56.9 ± 15
UAUAGGUACAUGUAAACCAAA	54.8 ± 5.2	92.2 ± 6.9	60.9 ± 4.8	73.8 ± 4.8
UGAUUACACAUGUAAACCAAA	56.3 ± 12	41 ± 1.8	46.6 ± 13	36 ± 4.5
UAGUGUUACAUGUAAACCAAA	83.5 ± 3.1	61.7 ± 8.4	66.7 ± 16	12.1 ± 3
UGUCGCAACAUGUAAACCAAA	84.2 ± 18	50.4 ± 4	54.4 ± 2.8	55.1 ± 10
UAGUUCAACAUGUAAACCAAA	74.4 ± 7.9	41 ± 3.9	48.8 ± 5.6	26.9 ± 2.5
UCACAUCACAUGUAAACCAAA	55.7 ± 11	79.7 ± 4.7	17.1 ± 2	40.7 ± 5.3
UGUCGGAACAUGUAAACCAAA	71.3 ± 13	72.2 ± 4.2	82.3 ± 9	40.4 ± 12
UUGUCUUACAUGUAAACCAAA	85.6 ± 2.8	61.8 ± 2.8	67.8 ± 12	103 ± 33
UGGAUGCACAUGUAAACCAAA	20.6 ± 3.3	3.09 ± 0.48	23.8 ± 1.2	42.6 ± 10
UGGACCCACAUGUAAACCAAA	13.4 ± 2.6	42 ± 1.8	58.5 ± 5.1	10.6 ± 3.9

Sequence	cell viability (3LL) [%]	cell viability (HeyA8) [%]	cell viability (H460) [%]	cell viability (M565) [%]
UCUAGCUACAUGUAAACCAAA	96 ± 10	62.2 ± 4	40.7 ± 3	67.7 ± 15
UUCGUGAACAUGUAAACCAAA	95.4 ± 21	90.3 ± 7	69.9 ± 11	97.3 ± 9.8
UCGGUUUACAUGUAAACCAAA	94.9 ± 13	83.8 ± 1.4	63.1 ± 3.8	76 ± 4.1
UUAGUUAACAUGUAAACCAAA	97.8 ± 10	91.6 ± 4.6	68.3 ± 16	120 ± 15
UUUCGUUACAUGUAAACCAAA	99.1 ± 10	93.1 ± 2.1	74.7 ± 11	81.4 ± 15
UCUCGGGACAUGUAAACCAAA	91.1 ± 9.9	87.5 ± 6.6	40.6 ± 4.3	60 ± 7
UCUUCGAACAUGUAAACCAAA	93.7 ± 16	83.5 ± 3.3	79.5 ± 12	68.2 ± 23
UAUGCUUACAUGUAAACCAAA	88.9 ± 5.2	70.8 ± 4.4	55.1 ± 2.3	61.4 ± 5.6
UUAGAUAACAUGUAAACCAAA	98.5 ± 15	95.5 ± 6.2	92.2 ± 9.4	102 ± 12
UAAGUGGACAUGUAAACCAAA	66.3 ± 6.8	56.2 ± 10	64.3 ± 12	82.3 ± 10
UGGUAAAACAUGUAAACCAAA	90.8 ± 10	89.3 ± 3.5	67 ± 11	74.6 ± 22
UUUUAGAACAUGUAAACCAAA	94.4 ± 5.2	96.8 ± 6.1	66 ± 4.3	99.3 ± 20
UCGGAACACAUGUAAACCAAA	76.3 ± 18	70.4 ± 2.7	47.8 ± 16	26.5 ± 5.3
UGAAUUAACAUGUAAACCAAA	105 ± 14	92.5 ± 7.5	61.3 ± 3.3	73.4 ± 7.8
UCUUUCAACAUGUAAACCAAA	90.2 ± 16	85 ± 11	62.2 ± 4.2	81.9 ± 10
UGACCUCACAUGUAAACCAAA	14.3 ± 1.9	81 ± 5.7	38.7 ± 8.2	10.6 ± 3
UAUAUCUACAUGUAAACCAAA	90.8 ± 12	91.6 ± 15	86.6 ± 15	85.4 ± 11
UUACUCCACAUGUAAACCAAA	7.24 ± 3.9	20 ± 0.59	18.4 ± 2.7	15 ± 3.1
UAAUCCCACAUGUAAACCAAA	4.72 ± 1.4	29.7 ± 0.79	38 ± 1.9	35.7 ± 4.5

Sequence	cell viability (3LL) [%]	cell viability (HeyA8) [%]	cell viability (H460) [%]	cell viability (M565) [%]
UAAGUUUACAUGUAAACCAAA	79.3 ± 3.4	57.5 ± 6.8	78.1 ± 15	64.2 ± 11
UCAGCAGACAUGUAAACCAAA	88.9 ± 19	78.1 ± 1.5	59.2 ± 3.2	41.1 ± 6.3
UGCCCAGACAUGUAAACCAAA	38.5 ± 3.3	55.9 ± 3.7	62.6 ± 4.6	31.2 ± 3.5
UCUCUAGACAUGUAAACCAAA	97.6 ± 12	91.8 ± 2.8	35.1 ± 4.8	70.3 ± 7.5
UGAUAGAACAUGUAAACCAAA	46.6 ± 13	59.2 ± 2.4	50.7 ± 6.5	50.4 ± 3.5
UGACCAUACAUGUAAACCAAA	54.1 ± 6.8	66.6 ± 3.4	52.3 ± 4.9	4.95 ± 0.57
UCAUCGCACAUGUAAACCAAA	67.6 ± 13	54.6 ± 9.7	43.1 ± 6.2	36.2 ± 6.9
UAGUGGCACAUGUAAACCAAA	2.94 ± 0.21	18.6 ± 1.2	25.4 ± 5.3	58.8 ± 3.9
UGGCUAAACAUGUAAACCAAA	69.8 ± 2.4	20.8 ± 4.1	46.2 ± 4	37.2 ± 4
UGAACUGACAUGUAAACCAAA	83 ± 16	82.8 ± 2.3	72.5 ± 11	27.7 ± 1.1
UGGAUCAACAUGUAAACCAAA	51.6 ± 4	48.3 ± 1.8	53.2 ± 11	44.8 ± 6
UGGCAGAACAUGUAAACCAAA	34.5 ± 9.1	9.22 ± 1.8	26.5 ± 4.1	14.1 ± 4.3
UGUGCACACAUGUAAACCAAA	54.8 ± 11	34.4 ± 5.2	59 ± 8.5	37.4 ± 6.8
UAAAAAAACAUGUAAACCAAA	112 ± 13	96.8 ± 4.2	87.2 ± 30	106 ± 20
UUAACAAACAUGUAAACCAAA	99.3 ± 2.4	100 ± 4.2	89.7 ± 13	108 ± 9.7
UCCCGGAACAUGUAAACCAAA	99.8 ± 17	76.3 ± 16	93.1 ± 19	68 ± 15
UUCUAACACAUGUAAACCAAA	103 ± 7.4	73.2 ± 2.6	78.5 ± 2.6	99.9 ± 15
UAUACGCACAUGUAAACCAAA	39.7 ± 2.5	109 ± 7.7	76.2 ± 12	109 ± 19
UAAGCACACAUGUAAACCAAA	75 ± 6.5	70 ± 12	86.2 ± 19	43.6 ± 5.4
